# Data as given in the supplement of paper PMC3334620.
# In all, about 33,000 sequences were measured (“E-score (-0.5 to 0.5)”: median about -0.04, highest 2% from about 0.36 on). The list shows a part of the results.
# Target: T1, Hmlalpha2 (UniProt P0CY09)
# T1 sequence: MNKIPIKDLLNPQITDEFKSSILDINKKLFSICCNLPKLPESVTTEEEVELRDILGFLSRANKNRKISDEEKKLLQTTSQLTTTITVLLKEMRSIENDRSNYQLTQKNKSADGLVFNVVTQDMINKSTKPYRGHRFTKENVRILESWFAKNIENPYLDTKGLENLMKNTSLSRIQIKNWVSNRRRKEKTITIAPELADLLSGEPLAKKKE
# Assay: PBM E-score (8-mer binding enrichment) (E-score (-0.5 to 0.5)); higher = stronger / more preferred TF binding; most listed sequences are background and not binding sites
# Details: protein concentration: 200 nM; construct: GST-full length
# In short: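 Masliner-normalised scans of fluorescent anti-GST signal were the basis for scoring. That signal came from GST-tagged yeast transcription factors applied at about 100-200 nM to double-stranded universal all-10-mer Agilent arrays on fresh or once-stripped slides. Each ungapped eight-base word, pooled with its reverse complement, received an E-score from the Universal PBM Analysis Suite.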
row,Sequence,PBM E-score
1,GACCTTCA,-0.147
2,AGCAGCCG,-0.126
3,AGAATGCG,-0.00591
4,TCAGCCAA,-0.103
5,ATCTCGCA,0.216
6,AAGACTAA,-0.0103
7,TGATGGAA,-0.0135
8,ATGTCACA,0.288
9,GTTTAAAA,0.215
10,AATGTGAG,0.102
11,CCTTTGAC,-0.0635
12,CGCGTCAC,0.152
13,CTCTTGGC,-0.183
14,GCCATTGA,-0.162
15,ATTTCAGG,-0.044
16,GAAGCTGC,-0.129
17,CCAACTTA,0.106
18,AAGTGACC,-0.0975
19,ATGTTGGC,0.207
20,CGAAGGCA,-0.201
21,AGGCATTG,0.0513
22,ACACCCAA,-0.0235
23,AGTATCGA,0.0829
24,GGACACTA,-0.0613
25,TACGAATA,0.199

row,Sequence,PBM E-score
1,CGACAGCG,-0.0823
2,ACAGGACA,0.22
3,CGCACTGA,-0.0603
4,ACCCGCCG,-0.0427
5,GCTAAGGA,-0.195
6,CTAGCGTA,-0.255
7,AGACTAGC,-0.214
8,AAGTTGCT,-0.0501
9,CTCACCGA,-0.152
10,ACCTGTTA,0.222
11,GTACCTAC,0.0328
12,ACTTTTGC,0.0765
13,GGTGTTCA,0.113
14,CGAGCTGA,-0.105
15,AGCAGCAT,-0.133
16,AGGTGACC,-0.212
17,TCCTGGAA,-0.242
18,GATGTATA,0.237
19,ACTACTCC,-0.0557
20,CCCACACC,-0.0147
21,ACCGACGC,0.123
22,CCGCGTAC,0.266
23,AACTTCTG,0.0373
24,CCAAGGGA,-0.322
25,CACGGCGA,0.175

row,Sequence,PBM E-score
1,CCTTCACA,0.0306
2,ACACCAAG,0.142
3,CTGACGGA,-0.0982
4,AATCGAGC,-0.131
5,ATCCTCAA,-0.00249
6,CGGGTAAC,-0.0328
7,ACCAGCGA,-0.275
8,ATTACGCG,0.467
9,ACGTCATG,0.214
10,GCAATCGA,-0.114
11,CAGCCGCA,-0.393
12,ACCTTTGA,-0.0894
13,CCATGTGA,0.184
14,CACCGGAA,-0.161
15,CTCGTTGA,0.0467
16,TCCAATCA,-0.261
17,AAATTAGA,0.177
18,GAAAGTCC,-0.328
19,ATTGACAG,-0.0357
20,GAATTCAC,0.123
21,GTATCCAA,0.00048
22,AGATTTTA,0.136
23,GGAGGACC,-0.288
24,TATTGGGA,-0.0408
25,CCCGATTA,0.0732

row,Sequence,PBM E-score
1,CACCGATG,-0.0352
2,AGACTCAG,-0.286
3,AGGACTGC,-0.293
4,GGTACTAC,0.113
5,CTTCGGGC,-0.237
6,AGTGGCAT,-0.239
7,CCACTAAG,-0.203
8,CGCAGTTC,-0.0105
9,AGTAGCCC,-0.268
10,GCGAAGCA,-0.0528
11,AGGGATGG,-0.0784
12,TAGCTAAA,0.0619
13,GGGAAGAC,-0.278
14,CGGACTAA,0.0322
15,AGTTTTGC,0.17
16,AATCCCCA,0.124
17,ACGACGCA,0.233
18,CACACCAG,-0.011
19,CTGCACAG,-0.0536
20,CCGGAGAC,-0.173
21,ATAGAACC,-0.217
22,ACTAGTAT,0.237
23,CAGAGGAC,-0.133
24,ACAGACCA,0.00368
25,GTGGGCGA,-0.04

row,Sequence,PBM E-score
1,GTATTCGA,0.0149
2,ACGGATCT,0.0629
3,CCATGAAA,-0.106
4,CTAGCCAC,-0.234
5,GCGTTGTA,0.315
6,CGCGGATA,0.0379
7,ACTGAAAA,0.0169
8,ATCACCAG,-0.156
9,GGTAGTCA,-0.178
10,CTTCTCTC,-0.0454
11,ACGCCTCG,0.0229
12,CTTAGCTA,-0.0429
13,AGCTACGC,0.0969
14,TAAAGAAA,0.275
15,ACGTTAGG,0.0618
16,ACGAACGC,0.00819
17,AGTAGCAC,-0.102
18,TCATGGAA,-0.157
19,GGAACTCA,-0.161
20,TCATAGGA,-0.117
21,CTGACCGC,-0.24
22,AAGGATAG,-0.155
23,ACATGGGT,0.382
24,ACAAGGGT,0.206
25,AACGCTCC,-0.00884

row,Sequence,PBM E-score
1,GATACCCA,-0.00314
2,GACCCACC,-0.333
3,AAAGTGAT,-0.126
4,CACATTAA,0.183
5,TAGATCAA,0.214
6,CAATCTGG,-0.0495
7,GCACGATA,0.154
8,AAAGCGTA,-0.0673
9,ACTAAAGC,0.0551
10,GCATGTAA,0.485
11,AGCCTGAC,-0.197
12,ACCTCTCT,-0.218
13,ATCAGGCA,-0.0801
14,AAACAGCC,-0.0829
15,ATGATTGG,-0.0819
16,GCTACGAA,0.0797
17,ACTCATCC,0.00616
18,CATACCTC,0.0518
19,ACGTCTAT,-0.0486
20,CGTCCGGA,-0.0393
21,ATTAAGCG,0.00243
22,CCTGGGCA,-0.301
23,CACGTATA,0.237
24,GCGGTGAA,-0.238
25,AGCTATGA,-0.141

row,Sequence,PBM E-score
1,AAATCTGA,-0.0012
2,CATCGGAC,-0.231
3,TAACCTCA,0.0864
4,GGCAAACC,-0.292
5,AGCGTTCA,-0.22
6,ACCATCCA,-0.0846
7,CCATCAAG,-0.254
8,GGACTCCA,-0.201
9,AGAAAACG,0.0424
10,CCCCATGA,-0.274
11,CCGACACA,0.0632
12,ATTATATA,0.261
13,AGGCCGCA,-0.0988
14,CGATATCA,0.0216
15,CACCGTCC,-0.158
16,GCCGGTGA,-0.149
17,AATCGCCG,-0.218
18,ACTGTTCA,-0.0539
19,TCGCTAAA,0.0398
20,CACTCACA,-0.0103
21,AGGTCCAT,-0.0867
22,AAGCGACA,0.0611
